Experimental data reported in the supplement of paper PMC9513381.
Recombinant human monoclonal antibodies (heavy:light variable regions). ELISA EC50 on the named antigen, from 10 µg/ml down; IC50 / IC90 against spike pseudovirus on 293T-ACE2 cells, 48 h; lower = stronger. Calls: IC50 above 1,000 ng/ml = non-neutralizing; EC50 above 1,000 ng/ml = non-binder. The source prints 1000 for neutralization that was not reached; it is given as >1000 ng/ml. Only binders of the Wuhan-Hu-1 domain have neutralization values.

B1: B1042 (protein)
chain 1: QVQLVQSGAEVRKPGASVKVSCKASGNTFTGYYIHWVRQAPGQGLEWMGWINPNSGGTNYAQRFRGRVALTTDTPINIVHMELSGLRSDDTAVYYCAKDTGSSWSEAEYFDSWGQGTLVTVSS
chain 2: DIQMTQSPSSLSASVGDRVTITCRASQSISNYLNWYQQKPGKAPNLLIYAASSLQSGVPSRFSGSGSGTDFTLTISSLQPDDFATYYCQQSYSTPPITFGQGTRLEI
B2: B1043 (protein)
chain 1: QVQLVESGGGVVQPGRSLRLSCAASGFIFSSYGMHWVRQAPGKGLEWVADISYHGSNKYYADSVKGRFNISRDNSKNTLFLQMNSLRPEDTALYFCAKDLGQGILHFVQWSLSRHGLDVWGQGTTVTVSS
chain 2: QSALTQPPSASGSPGQSVTISCTGTSSDVGGYNYVSWYQKYPGKAPKLIIYEVDKRPSGVPDRFSGSKSGNTASLTVSGLQAEDEADYYCSSSAVSVIFGGGTKLTVL
B3: B1044 (protein)
chain 1: QVQLVQSGAEVKKPGSSVKVSCKASGGTFSSYAISWVRQAPGQGLEWMGGIIPIFGTANYAQKFQGRVTITADESTSTAYMELSSLRSEDTAVYYCARALYYYDSSGRTRMEEYFDYWGQGTLVTVSS
chain 2: QSVLTQPPSVSGAPGQRVTISCTGSSSNIGAAYDVHWYQQLPGTAPKLLIYGNSNRPSGVPDRFSGSKSGTSASLAITGLQAEDEADYYCQSYDSSLSARYVFGTGTKVTVL
B4: B1047 (protein)
chain 1: QVQLVESGGGVVQPGRSLRLSCVASGFTFNNHAMHWVRQAPGKGLDWVAVISYDGSNKYYADSVKGRFTISRDNSKNTLYVQMNSLRAEDTAVYYCAREDYYDSSGSFDYWGQGTLVTVSS
chain 2: QSALTQPASVSGSPGQSITISCTGTSSDVGGYNYVSWYQQHPGKAPKLLTYDVSNRPSGVSNRFSGSKSGNTASLTISGLQAEDEADYYCSSYTNSATWVFGGGTKLTVL
B5: B1051 (protein)
chain 1: EVQLVESGGGVVRPGGSLRLSCSASGFTFGEYGMSWFRQAPGKGPEWVSGITWNGGNPTYADSVKGRFMISRDNAKNSLYLQMNSLRAEDSASYHCARALCGDDCLASMYNWFDPWGQGTLVTVSS
chain 2: QSVLTQPPSVSGAPGQRVTISCTGSSSNIGAGYDVHWYQQFPGTAPKLLIYNNNNRPSGVPDRFSGSKSGTSASLAITGLQAEDEADYYCQSFDSGRSGSEVFGTGTKVTVL
B6: B1052 (protein)
chain 1: QVQLVQSGAEVKKPGASVKVSCKASGYIFTGYYMHWVRQAPGQGLEWMGWINPNSGATNYAQKFQGRVTMTRDTSISTVHMDLSRLRSEDTAVYYCARDQAFSMVSGSVDYWGQGTLVTVSP
chain 2: QSVLTQPASVSGSPGQSITISCTGASSDVGTYDLVSWYQHHPGKAPKLVIFEVTKRPSGVSNRFSGSKSGNTASLTISGLQAEDEADYYCCSYAGNSAYVFGTGTKVTA
B7: B1053 (protein)
chain 1: QVQLVQSGAEVKQPGASVKVSCKASGYTFTRYYMHWVRQAPGQGLEWMGWINPNSGGTNYAQKFQGSVTMTRDTPISTAYMELSRLKSDDTAVYYCARSLFYYDRRGYPTPEDHFDYWGQGTLVTVSS
chain 2: QSVLTQPPSVSGAPGQRVTISCTGSSSNIGANYDVHWYQHLPGTAPKLLIYGNTNRPSGVPDRFSGSKSGTSASLAITGLQAEDEGDYYCQSYDSSPSGPNWVFGGGTKVTVL
B8: B601 (protein)
chain 1: QVQLVQSGAEVKKPGASVKVSCKTSGYTLIDYYVHWVRQAPGQGLEWMGRINPNSGGTNYAQKFQGRVTMTGGTSITTAYMELSGLRSDDTAVYYCATEHYDIVAGHSPGGKYFGMDVWGQGTTVTVSS
chain 2: QSALTQPASVSGSPGQSITISCTGSSSDVGSYNYVSWYQQHPGRAPKLIISEVTNRPSGVSNRFSGSKSGNTASLTISGLQAEDEADYYCSSYTSSSPLVLFGGGTKLT
B9: B602 (protein)
chain 1: QVQLVQSGAEVKKPGASVKVSCKTSGYTLIDYYVHWVRQAPGQGLEWMGRINPNSGGTNYAQKFQGRVTMTGGTSITTAYMELSGLRSDDTAVYYCATEHYDIVAGHSPGGKYFGMDVWGQGTTVTVSS
chain 2: QSALTQPASVSGSPGQSITISCTGSSSDVGSYNYVSWYQQHPGRAPKLIISEVTNRPSGVSNRFSGSKSGNTASLTISGLQAEDEADYYCSSYTSSSPLVLFGGGTKLTVL
B10: B605 (protein)
chain 1: QVQLQESGPRLVKPSQTLSLTCSVSGGSFSSGGYYWSWIRQHPGKGLEWIGYIYYTGSTYYNPSLKSRVSISVDTSKNELSLGLSSVTAADTAVYYCARGPYTTRAFDYWGQGTLVTVSS
chain 2: QSALTQPPSASGSPGQSVTISCTGTSSDVGGYNYVSWYQQHPGKAPKLIIYEVSKRPSGVPDRFSGSKSGNTASLTVSGLQAEDEADYYCSSYGGSNNEVFGGGTKLTVL
B11: B606 (protein)
chain 1: QVQLQESGPGLVKPSQTLSLTCSVSGGSVSSGGYYWSWIRQHPGKGLEWVGYIYYTGSTYYNPSLKSRGTISVDTSKNQFSLKLSSVTAADTAVYYCARGPYTTRAFDYWGQGTLVTVSS
chain 2: QSALTQPPSASGSPGQSVTISCTGTSSDVGDYNYVSWYQQHPGKAPKLMIYEVNKRPSGVPDRFSGSKSGNTASLTVSGLQAEDEADYYCSSYAGSNTEVFGGGTKLTVL
B12: B609 (protein)
chain 1: QVQLVQSGAAVRKPGSSVKVSCKASGGLFSSFAISWVRQAPGQGLQYMGGIIPMFGIPNYAQKFQGRVTITADESTSTAYMELSSLTSEDTAVYYCARAPVATRPPDYWGQGTLVIVSS
chain 2: EIVMTQSPATLSVSPGERATLSCRASQSVSNNLAWYQQKPGQAPRLLIYGASTRATGIPARFSGSGSGTEFTLTISSLQSEDFAVYFCQQYNDWPPLTFGGGTKVEIK
B13: B610 (protein)
chain 1: EVQLVESGGGLIQPGGSLRLSCAASGFPISSNYMNWVRQAPGKGLEWVSIIYSGGTTYYVDSVKGRFTISRDDSKNTLYLQMNSLRAEDTAVYYCARDLQNYGMDVWGQGTTVTVSS
chain 2: DIQLTQSPSFLSASVGDRVTITCRASQGISNYLVWYQQKPGKAPKLLIYAASTLQSGVPSRFSGSGSGTEFTLTISSLQPEDFATYYCQQVNSYPLFGPGTKVDI
B14: B612 (protein)
chain 1: EVQLVESGGGLIQPGGSLRLSCAASGVIVSSNYMTWVRQAPGKGLEWVSVIYSGGSTYYADSVKGRFTISRDNSKNTLYLQMNSLRAEDTAVYYCARDLNYYGMDVWGQGTTVTVSS
chain 2: DIQLTQSPSFLSASVGDRVTITCRASQGISSSLAWYQQKPGKAPKLLIYAASTLQSGVPSRFSGSGSGTEFTLTISSLQPEDFATYYCQQFNSYPHFGQGTKLEIK

Target: SARS-CoV-2 Wuhan-Hu-1 spike pseudovirus
Assay: pseudovirus neutralization IC50; higher = weaker neutralization
Description: (§1)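 Single-round luciferase reporter pseudovirus mixed with antibody dilutions and put on 293T-ACE2 cells for 48 h; signal relative to no-antibody wells, four-parameter fit.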

Row | Binder | pseudovirus neutralization IC50
1 | B1 | 18.6 ng/mL
2 | B2 | 3.54 ng/mL
3 | B3 | 52.5 ng/mL
4 | B4 | 6.22 ng/mL
5 | B5 | 25.8 ng/mL
6 | B6 | 1.32 ng/mL
7 | B7 | 34.1 ng/mL
8 | B8 | 5.14 ng/mL
9 | B9 | 5.25 ng/mL
10 | B10 | 1.91 ng/mL
11 | B11 | 7.81 ng/mL
12 | B12 | 1.35 ng/mL
13 | B13 | 8.63 ng/mL
14 | B14 | 8.1 ng/mL

Target: SARS-CoV-2 Wuhan-Hu-1 spike pseudovirus
Assay: pseudovirus neutralization IC90; higher = weaker neutralization
Description: as §1

Row | Binder | pseudovirus neutralization IC90
15 | B1 | 400 ng/mL
16 | B2 | 10.3 ng/mL
17 | B3 | > 1000 ng/mL
18 | B4 | 79.2 ng/mL
19 | B5 | 88.7 ng/mL
20 | B6 | 6.5 ng/mL
21 | B7 | 260 ng/mL
22 | B8 | 23.7 ng/mL
23 | B9 | 21.5 ng/mL
24 | B10 | 11.9 ng/mL
25 | B11 | 74.2 ng/mL
26 | B12 | 4.22 ng/mL
27 | B13 | 37.2 ng/mL
28 | B14 | 41.1 ng/mL

Target: SARS-CoV-2 Delta (B.1.617.2) spike RBD
Assay: ELISA binding EC50; higher = weaker binding; ELISA of recombinant human antibody on coated antigen, from 10 µg/ml in fourfold dilutions; four-parameter fit.

Row | Binder | ELISA binding EC50
29 | B1 | 435 ng/mL
30 | B2 | > 1000 ng/mL
31 | B3 | 388 ng/mL
32 | B4 | 12.5 ng/mL
33 | B5 | 6.81 ng/mL
34 | B6 | 74.2 ng/mL
35 | B7 | 8.16 ng/mL
36 | B8 | 3.83 ng/mL
37 | B9 | 3.48 ng/mL
38 | B10 | 2.56 ng/mL
39 | B11 | 9.9 ng/mL
40 | B12 | 24 ng/mL
41 | B13 | 12.5 ng/mL
42 | B14 | 5.45 ng/mL

Target: SARS-CoV-2 Omicron BA.1 spike protein
Assay: as above

Row | Binder | ELISA binding EC50
43 | B1 | > 1000 ng/mL
44 | B2 | 16.1 ng/mL
45 | B3 | 149 ng/mL
46 | B4 | > 1000 ng/mL
47 | B5 | 17.3 ng/mL
48 | B6 | > 1000 ng/mL
49 | B7 | 6.67 ng/mL
50 | B8 | > 1000 ng/mL
51 | B9 | > 1000 ng/mL
52 | B10 | > 1000 ng/mL
53 | B11 | > 1000 ng/mL
54 | B12 | > 1000 ng/mL
55 | B13 | > 1000 ng/mL
56 | B14 | > 1000 ng/mL

Target: SARS-CoV-2 Wuhan-Hu-1 spike receptor-binding domain
Assay: as above

Row | Binder | ELISA binding EC50
57 | B1 | 2.74 ng/mL
58 | B2 | 3.23 ng/mL
59 | B3 | 4.8 ng/mL
60 | B4 | 3.33 ng/mL
61 | B5 | 2.21 ng/mL
62 | B6 | 1.88 ng/mL
63 | B7 | 2.75 ng/mL
64 | B8 | 2.66 ng/mL
65 | B9 | 2.3 ng/mL
66 | B10 | 1.96 ng/mL
67 | B11 | 3.19 ng/mL
68 | B12 | 3.03 ng/mL
69 | B13 | 2.58 ng/mL
70 | B14 | 3.17 ng/mL
